Experiment [1] deals with T1, chiOX40R HHRH-Fc (human/rat chimera; human).
T1 construct: also called chiOX40R-Fc HHRH; chiOX40R OX40 HHRH-Fc
The experiment is described as follows: SPR, chimera immobilised (3000 RU), fragment injected at 200 nM. The procedure: (§1) A second injection was then performed using HBS-EP buffer for 3 min followed by 5 min of dissociation. Regeneration between the injections was done using glycine pH1.5 buffer for 1 min (FIG. 21 and table 23).
(In SPR one partner is held on a chip, and binding of the other changes the refractive index at the surface.)

Experiment [2] deals with T1, chiOX40R HHRH-Fc. The experiment is described as follows: SPR, response units compared. The procedure: as §1
T1 sequence (chain, as listed by the source): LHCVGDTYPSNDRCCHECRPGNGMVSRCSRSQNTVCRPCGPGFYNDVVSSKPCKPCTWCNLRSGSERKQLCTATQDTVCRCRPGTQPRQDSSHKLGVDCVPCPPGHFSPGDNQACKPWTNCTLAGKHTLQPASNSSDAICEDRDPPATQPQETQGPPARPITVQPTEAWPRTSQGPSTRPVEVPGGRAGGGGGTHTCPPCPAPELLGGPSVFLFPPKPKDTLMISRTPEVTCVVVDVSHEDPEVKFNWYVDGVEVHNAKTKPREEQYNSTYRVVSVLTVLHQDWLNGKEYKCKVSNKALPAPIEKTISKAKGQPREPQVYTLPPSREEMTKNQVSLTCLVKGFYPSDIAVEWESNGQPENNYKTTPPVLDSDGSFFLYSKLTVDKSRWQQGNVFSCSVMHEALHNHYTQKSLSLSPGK

This note sets out measurements from patent publication US20200347143A1 (GLENMARK PHARMACEUTICALS S A, published 2020).

B1: Fc-7H11 Fab/7H11 Fab (other)
heavy: [sequence of human IgG1 Fc with changes omitted]GGGGTQVQLVQSGAEVKKPGASVKVSCKASGYTFTRYYMHWVRQAPGQGLEWMGWIYPGEGSTKYAQKFQGRVTMTRDTSISTAYMELSRLRSDDTAVYYCAREYGNYDYWGQGTLVTVSSASTKGPSVFPLAPSSKSTSGGTAALGCLVKDYFPEPVTVSWNSGALTSGVHTFPAVLQSSGLYSLSSVVTVPSSSLGTQTYICNVNHKPSNTKVDKKVEPKSC
light: DIVMTQSPDSLAVSLGERATINCKSSQSLLNSGNQKNYLAWYQQKPGQPPKLLIYGASTRESGVPDRFSGSGSGTDFTLTISSLQAEDVAVYYCQNDHSYPYTFGQGTKLEIKRTVAAPSVFIFPPSDEQLKSGTASVVCLLNNFYPREAKVQWKVDNALQSGNSQESVTEQDSKDSTYSLSSTLTLSKADYEKHKVYACEVTHQGLSSPVTKSFNRGEC
notes: N-terminal Fabs removed by digestion near the hinge; also called purified digestion product of Tetra-17
B1 had a response units with chiOX40R HHRH-Fc [1] of 870 RU. Also, the “fold better binding than Fc-7H11 Fab/2H6 scFv” value in the experiment with chiOX40R HHRH-Fc [2] came out at 2 fold.
